# Measured values taken from the supplement of paper PMC12217912.
# The other results are listed elsewhere or left out. The full chains were built here from the parent and the listed change. Inactive controls read about 0.05.
# B1: TEV protease; numbered along this chain (parent)
# chain: MGESLFKGPRDYNPISSSICHLTNESDGHTTSLYGIGFGPFIITNKHLFRRNNGTLVVQSLHGVFKVKDTTTLQQHLVDGRDMIIIRMPKDFPPFPQKLKFREPQREERICLVTTNFQTKSMSSMVSDTSCTFPSGDGIFWKHWIQTKDGQCGSPLVSTRDGFIVGIHSASNFTNTNNYFTSVPKNFMELLTNQEAQQWVSGWRLNADSVLWGGHKVFMVKPEEPFQPVKEATQL
# Variants of: B1
# Assay: raw area under fraction-flipped curve 0-4 h after induction (AUC4h, not background-subtracted), DNA-recorder readout of cleavage of the substrate (dimensionless); higher = more cleavage of the substrate by the protease variant
# Settings: temperature: 34 °C; time window: 0-4 h after rhamnose induction
# Procedure: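 In vivo DNA recorder in E. coli TOP10(DE3) ΔrhaA at 34 °C. Each TEVp single-site mutant (parent TEVp 0) is paired with a single-site variant of the 7-mer TEVs (canonical ENLYFQ|S). The substrate sits between flexible linkers in a Bxb1-sfGFP-TEVs-SsrA fusion, so cleavage stabilises Bxb1 and speeds flipping of a recombination array, read by NGS. The value is the raw area under the fraction-flipped curve over 0-4 h after rhamnose induction (AUC4h), with ≥20 reads per time point. It is not background-subtracted; inactive controls average about 0.047.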
# 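Note: Bxb1 expression induced with 0.2% (w/v) L-rhamnose at OD600 near 0.5, cultures sampled hourly, flipped fraction per protease–substrate barcode pair counted by paired-end Illumina sequencing.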
Variant,area with substrate ENAYFQS,area with substrate ENCYFQS,area with substrate ENDYFQS,area with substrate ENEYFQS,area with substrate ENFYFQS,area with substrate ENGYFQS,area with substrate ENHYFQS,area with substrate ENKYFQS,area with substrate ENMYFQS,area with substrate ENNYFQS,area with substrate ENPYFQS,area with substrate ENQYFQS,area with substrate ENRYFQS,area with substrate ENSYFQS,area with substrate ENTYFQS,area with substrate ENVYFQS,area with substrate ENWYFQS,area with substrate ENYYFQS,area with substrate ENIYFQS
MGESLFKGPRDYNPISSSICHLTNESDGHTTSLYGIGFGPFIITNKHLFRRNNGTLVVQSLHGVFKVKDTTTLQQHLVDGRDMIIIRMPKDFPPFPQKLKFREPQREERICLVTTNFQTKSMSSMVSDTSCTFPSGDGINWKHWIQTKDGQCGSPLVSTRDGFIVGIHSASNFTNTNNYFTSVPKNFMELLTNQEAQQWVSGWRLNADSVLWGGHKVFMVKPEEPFQPVKEATQL [F140N],0.0656,0.0732,0.0746,0.0706,0.0715,0.0676,0.0636,0.0575,0.0594,0.0648,0.0693,0.0665,0.0324,0.0527,0.0578,0.068,0.0048,0.0619,–
MGESLFKGPRDYNPISSSICHLTNESDGHTTSLYGIGFGPFIITNKHLFRRNNGTLVVQSLHGVFKVKDTTTLQQHLVDGRDMIIIRMPKDFPPFPQKLKFREPQREERICLVTTNFQTKSMSSMVSDTSCTFPSGDGIQWKHWIQTKDGQCGSPLVSTRDGFIVGIHSASNFTNTNNYFTSVPKNFMELLTNQEAQQWVSGWRLNADSVLWGGHKVFMVKPEEPFQPVKEATQL [F140Q],0.0485,–,0.0627,0.0721,0.035,–,0.0644,0.0651,–,–,–,–,0.0481,–,–,0.0581,–,–,0.0521
MGESLFKGPRDYNPISSSICHLTNESDGHTTSLYGIGFGPFIITNKHLFRRNNGTLVVQSLHGVFKVKDTTTLQQHLVDGRDMIIIRMPKDFPPFPQKLKFREPQREERICLVTTNFQTKSMSSMVSDGSCTFPSGDGIFWKHWIQTKDGQCGSPLVSTRDGFIVGIHSASNFTNTNNYFTSVPKNFMELLTNQEAQQWVSGWRLNADSVLWGGHKVFMVKPEEPFQPVKEATQL [T129G],0.0677,–,–,0.0593,–,0.0633,–,–,–,–,0.0533,0.0631,–,–,0.0616,–,–,–,–
MGESLFKGPRDYNPISSSICHLTNESDGHTTSLYGIGFGPFIITNKHLFRRNNGTLVVQSLHGVFKVKDTTTLQQHLVDGRDMIIIRMPKDFPPFPQKLKFREPQREERICLVTTNFQTKSMSSMVSDNSCTFPSGDGIFWKHWIQTKDGQCGSPLVSTRDGFIVGIHSASNFTNTNNYFTSVPKNFMELLTNQEAQQWVSGWRLNADSVLWGGHKVFMVKPEEPFQPVKEATQL [T129N],0.0475,0.0783,0.0617,–,0.077,0.0682,0.0695,0.0641,0.0727,0.0589,–,0.0571,0.0618,0.0337,–,0.0686,–,–,0.123
MGESLFKGPRDYNPISSSICHLTNESDGHTTSLYGIGFGPFIITNKHLFRRNNGTLVVQSLHGVFKVKDTTTLQQHLVDGRDMIIIRMPKDFPPFPQKLKFREPQREERICLVTTNFQTKSMSSMVSDTMCTFPSGDGIFWKHWIQTKDGQCGSPLVSTRDGFIVGIHSASNFTNTNNYFTSVPKNFMELLTNQEAQQWVSGWRLNADSVLWGGHKVFMVKPEEPFQPVKEATQL [S130M],0.08,0.0677,–,0.0602,0.0651,0.0344,–,0.0658,–,0.0869,–,0.0654,–,–,0.0649,0.0755,–,–,–
MGESLFKGPRDYNPISSSICHLTNESDGHTTSLYGIGFGPFIITNKHLFRRNNGTLVVQSLHGVFKVKDTTTLQQHLVDGRDMIIIRMPKDFPPFPQKLKFREPQREERICLVTTNFQTKSMSSMVSDTKCTFPSGDGIFWKHWIQTKDGQCGSPLVSTRDGFIVGIHSASNFTNTNNYFTSVPKNFMELLTNQEAQQWVSGWRLNADSVLWGGHKVFMVKPEEPFQPVKEATQL [S130K],0.0631,0.056,–,0.058,0.0568,0.0471,0.054,0.0667,0.108,0.0785,0.0534,0.0605,–,0.0546,0.0608,–,0.0566,–,–
MGESLFKGPRDYNPISSSICHLTNESDGHTTSLYGIGFGPFIITNKHLFRRNNGTLVVQSLHGVFKVKDTTTLQQHLVDGRDMIIIRMPKDFPPFPQKLKFREPQREERICLVTTNFQTKSMSSMVSDTHCTFPSGDGIFWKHWIQTKDGQCGSPLVSTRDGFIVGIHSASNFTNTNNYFTSVPKNFMELLTNQEAQQWVSGWRLNADSVLWGGHKVFMVKPEEPFQPVKEATQL [S130H],0.0499,–,0.0621,0.06,–,0.0758,–,0.0559,–,–,0.0627,0.0436,0.0565,0.0708,0.0424,–,0.0346,–,0.105
MGESLFKGPRDYNPISSSICHLTNESDGHTTSLYGIGFGPFIITNKHLFRRNNGTLVVQSLHGVFKVKDTTTLQQHLVDGRDMIIIRMPKDFPPFPQKLKFREPQREERICLVTTNFQTKSMSSMVSDTSCTFPWGDGIFWKHWIQTKDGQCGSPLVSTRDGFIVGIHSASNFTNTNNYFTSVPKNFMELLTNQEAQQWVSGWRLNADSVLWGGHKVFMVKPEEPFQPVKEATQL [S135W],0.0505,0.0481,–,0.0457,0.0526,0.0762,0.0352,0.0681,0.064,–,0.0422,0.0629,0.0634,0.0585,–,0.0556,0.06,–,–
MGESLFKGPRDYNPISSSICHLTNESDGHTTSLYGIGFGPFIITNKHLFRRNNGTLVVQSLHGVFKVKDTTTLQQHLVDGRDMIIIRMPKDFPPFPQKLKFREPQREERICLVTTNFQTKSMSSMVSDTSCTFPCGDGIFWKHWIQTKDGQCGSPLVSTRDGFIVGIHSASNFTNTNNYFTSVPKNFMELLTNQEAQQWVSGWRLNADSVLWGGHKVFMVKPEEPFQPVKEATQL [S135C],0.0616,0.0502,0.0626,0.0628,0.0625,0.0556,0.0483,–,0.0445,0.0628,0.0509,0.0571,0.0623,0.0563,0.0421,0.0648,0.0746,–,0.201
